Assay [1] concerns the target His-PGD2 Δ15 variant (His-PGD2mat) (Arabidopsis thaliana) (UniProt Q9FWA3). As to the kind of experiment: semi-native SDS-PAGE with anti-His immunoblot; His-PGD2 variants from cleared E. coli BL21minus extracts, sample buffer without SDS and DTT and without boiling; monomer to dimer.
Assay [2] concerns the target His-PGD2 T6E (Arabidopsis thaliana) (UniProt Q9FWA3). Described as above.

These are yes or no findings as the source states them, for the method shown. Where a sequence is shown, tags or fusion partners need not be part of it.

B1: His-PGD2 Δ15 variant (His-PGD2mat) (domain or fragment, UniProt Q9FWA3 16-486)
chain: MGQNLALNIAEKGFPISVYNRTTSKVDETVERAKKEGNLPLYGFHDPESFVKSIQKPRVIIMLVKAGSPVDQTIKTLSAYLEKGDCIVDGGNEWYENTERREKAVAENGFLYLGMGVSGGEEGARNGPSMMPGGSYEAYKNIEDIVLKVAAQVRDSGPCVTYIGKGGSGNFVKMVHNGIEYGDMQLIAEAYDVLKSVGKLSNEELHSVFSDWNKGELESFLVEITADIFGIKDDKGDGHLVDKVLDKTGMKGTGKWTVQQAAELSVPAPTIESSLDARFLSGLKDERVQAAKVFKAGGFGDILTDQKVDKKQLVDDVRKALYASKICSYAQGMNLIRAKSIEKGWGLKLGELARIWKGGCIIRAIFLDRIKQAYDRNAELANLLVDPEFAKEIIERQSAWRRVVCLAINSGISTPGMSASLAYFDSYRRERLPANLVQAQRDYFGAHTYERTDVEGSFHTEWFKIARQSKI
Regarding B1, in assay [1], the binding entry was “no binding”.

B2: His-PGD2 T6E (enzyme, UniProt Q9FWA3 1-486)
chain: MAVQPERIGLAGLAVMGQNLALNIAEKGFPISVYNRTTSKVDETVERAKKEGNLPLYGFHDPESFVKSIQKPRVIIMLVKAGSPVDQTIKTLSAYLEKGDCIVDGGNEWYENTERREKAVAENGFLYLGMGVSGGEEGARNGPSMMPGGSYEAYKNIEDIVLKVAAQVRDSGPCVTYIGKGGSGNFVKMVHNGIEYGDMQLIAEAYDVLKSVGKLSNEELHSVFSDWNKGELESFLVEITADIFGIKDDKGDGHLVDKVLDKTGMKGTGKWTVQQAAELSVPAPTIESSLDARFLSGLKDERVQAAKVFKAGGFGDILTDQKVDKKQLVDDVRKALYASKICSYAQGMNLIRAKSIEKGWGLKLGELARIWKGGCIIRAIFLDRIKQAYDRNAELANLLVDPEFAKEIIERQSAWRRVVCLAINSGISTPGMSASLAYFDSYRRERLPANLVQAQRDYFGAHTYERTDVEGSFHTEWFKIARQSKI
As to B2, the binding result in assay [2] is listed as “no binding”.

The values above are taken from paper PMC11103113, “Evidence for dual targeting control of Arabidopsis 6-phosphogluconate dehydrogenase isoforms by N-terminal phosphorylation” (Journal of Experimental Botany, 2024).
